The record followed here is article PMC6919601, “Identification of Plasmodium dipeptidyl aminopeptidase allosteric inhibitors by high throughput screening” (PLoS ONE, 2019).

“And” between values parts separate entries of the source, which are not always exact repeats. Equal entries are not always repeated. About 230 (0.21%) of roughly 110,000 compounds showed an effect of 50% or more. Some of the results follow.
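Further: 30 min substrate incubation versus DMSO and 10 µM JCP410 controls.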

Chain of DPAP1 (Q8IIJ9 whole entry, looked up): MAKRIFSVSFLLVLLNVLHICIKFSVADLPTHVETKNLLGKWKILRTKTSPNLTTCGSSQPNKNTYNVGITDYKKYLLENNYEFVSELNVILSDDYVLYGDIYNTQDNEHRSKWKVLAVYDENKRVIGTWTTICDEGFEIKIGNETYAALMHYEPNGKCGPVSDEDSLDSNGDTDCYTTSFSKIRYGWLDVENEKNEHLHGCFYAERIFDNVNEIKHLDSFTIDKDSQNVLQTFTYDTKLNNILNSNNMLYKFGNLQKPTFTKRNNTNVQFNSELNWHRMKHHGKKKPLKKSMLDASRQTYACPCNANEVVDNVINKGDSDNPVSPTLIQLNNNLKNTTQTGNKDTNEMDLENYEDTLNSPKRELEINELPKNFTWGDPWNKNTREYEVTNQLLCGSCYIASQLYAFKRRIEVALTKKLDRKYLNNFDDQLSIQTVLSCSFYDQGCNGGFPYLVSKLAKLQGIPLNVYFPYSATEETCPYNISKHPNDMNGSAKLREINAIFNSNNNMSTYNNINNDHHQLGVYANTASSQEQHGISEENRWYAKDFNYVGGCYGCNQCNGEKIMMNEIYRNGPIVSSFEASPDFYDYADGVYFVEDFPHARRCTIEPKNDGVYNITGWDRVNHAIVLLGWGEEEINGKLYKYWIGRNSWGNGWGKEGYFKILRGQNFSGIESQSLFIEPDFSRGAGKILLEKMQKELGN

This test addresses DPAP1 (Plasmodium falciparum, UniProt Q8IIJ9). Nature of the test: primary screen, percent inhibition; read by cleavage of a fluorogenic dipeptide substrate; higher = more effect of the substance. On the set-up: species or system P. falciparum D10 trophozoite lysates; single well.
Take `O=C(O)/C=C/C(=O)NCCc1ccccc1`: the “% Inhibition @ 10 uM” value is 3.06% and -5.64%.
As for `COc1ccc(OC)c(-c2c(C#N)c(N)nc(OC)c2C#N)c1`, the “% Inhibition @ 10 uM” value is -0.999%.
As for `Cc1n[nH]c(C)c1-c1c(C)n[nH]c1C`, the figure is -1.76%; as for `COc1ccc(C(=O)Nc2cnn(Cc3ccc(Cl)cc3Cl)c2)cc1OC`, 0.145%; as for `O=C(Cc1cccs1)NCc1ccccc1Br`, 0.0198%.
For `Cc1ccccc1CNC(=O)Cn1ncc2ccc(Cl)cc21`, the “% Inhibition @ 10 uM” value came out at 5.39%.
As for `Cc1ccc(NC(=O)c2ccc(OC(C)C)cc2)cc1`, the figure is -3.71%; as for `COc1cc(CNCCSc2nnnn2C)ccc1OCC(N)=O`, 0.00706%; as for `CCn1cc(C(=O)O)c(=O)c2c(N)c(F)c(N3CCNCC3)c(F)c21`, 3.54%.
As for `CCC1CCCCN1Cc1cccc(Oc2ccccc2)c1` (stereo not drawn), the figure is 3.24%.
As for `O=C(NCc1ccccn1)c1ccccc1Br`, the figure is -3.94%; as for `O=c1cnnc2sc(SCc3cccc(Cl)c3)nn12`, 1%.
In the case of `COc1cccc(C/N=c2/c(-c3ccc(C(C)C)cc3)c(O)c2=O)c1`, the “% Inhibition @ 10 uM” value was -2.87%.
As for `COc1ccc(-n2nnc(-c3nsc(NC(=O)c4ccccc4C)n3)c2C)cc1OC`, the figure is 6.57%.
As for `CCOC(=O)c1c(-c2cccc(OC)c2)csc1N`, the figure is -4.24%.
As for `CCn1c(=O)n(Cc2ccccc2)c(=O)c2sc3ccccc3c21`, the figure is 5.46%.
Turning to `CCCCN(CC)CCNC(=O)c1cc2cc3ccc(Cl)cc3nc2o1`, the “% Inhibition @ 10 uM” value was 1.9%.
As for `Cc1ccc2nc(Cl)c3cc(C(=O)N4CCC(=O)CC4)sc3c2c1`, the figure is 1.42%; as for `CCCOC(=O)c1ccc(NC(=O)c2cccs2)cc1`, -1.22%; as for `CCn1c(C(=O)O)c(CNCCc2ccccc2Cl)c2ccc(C)cc21`, -0.118%.
As for `CCCOc1ccc(C2C(C#N)=C(N)OC3=C2C(=O)CCC3)cc1OC` (stereo not drawn), the figure is 1.08%.
As for `COc1ccc(S(=O)(=O)N2CCN(Cc3ccc(Br)cc3)CC2)cc1`, the “% Inhibition @ 10 uM” value is on record as -1.1%.
As for `CS(=O)(=O)C1=NSC2=NC(=O)/C(=C\c3ccc(Br)o3)C(=N)N21`, the figure is 3.48%; as for `Cc1ccc(-c2noc(CCC(=O)N3CCN(c4ccccn4)CC3)n2)cc1`, 0.738%.
As for `O=C(O)c1ccc(/C=C2\NC(=O)N(Cc3ccc(Cl)cc3)C2=O)cc1`, the figure is 2.17%.
As for `O=S(=O)(c1ccc(-n2cnnn2)cc1)N1CCNCC1`, the figure is 1%; as for `COc1cc(/C=C2\S/C(=N/c3ccc(C)c(C)c3)N(C)C2=O)ccc1OCC(=O)O`, 6.15%; as for `CCCOc1ccccc1C1CC(=O)NC(C)=C1C(=O)OCC1CCCCC1` (stereo not drawn), -1.62%.
On to `CCOc1ccccc1C(=O)Nc1ccc(C(=O)c2ccccc2)cc1`, for which the “% Inhibition @ 10 uM” value is given as -8.36%.
As for `COc1ccccc1OCC(=O)N(Cc1nc(-c2ccc(C)cc2)no1)C(C)C`, the figure is 0.232%.
For `Cc1ccc(S(=O)(=O)NCCCCCC(=O)Nc2nccs2)cc1`, the “% Inhibition @ 10 uM” value is given as -1.6%.
As for `Cn1cc(CC(=O)NCCCN2CCCC2=O)c2ccccc21`, the figure is -3.28%.
As for `CC(C)NC(=O)CCCOc1ccc(Cl)cc1Cl`, the figure is -1.48%; as for `Cc1cccc(Cn2c(Sc3nncn3C)nc3c2c(=O)[nH]c(=O)n3C)c1`, 0.758%.
As for `CCn1cc(C(=O)O)c(=O)c2cc(N3CCOCC3)c(F)cc21`, the figure is 4.65%; as for `COc1ccc(-n2c(C)cc(C(=O)CN3CCCCC3)c2C)cc1`, 1.81%; as for `CC(C)(C)c1ccc(-c2nnc3sc(-c4ccco4)nn23)cc1`, 3.38%.
As for `Cc1cc(C)c(C)c(OCCCN2CCCCC2)c1`, the “% Inhibition @ 10 uM” value is 1.35%.
As for `O=C(NC1CCCCCC1)c1cccs1`, the figure is 3.47%.
As for `CCc1cc(=O)oc2c3c(c(Cl)cc12)OCN(Cc1ccccc1)C3`, the figure is 0.895%; as for `Cc1ccc(OCC(=O)NC2CCS(=O)(=O)C2)c(C)c1` (stereo not drawn), -5.35%; as for `O=C1CSC(c2ccc(Cl)cc2)N1c1ccc(Cl)cc1` (stereo not drawn), -0.0217%.
As for `COc1ccc(C2=CC(c3cc(Cl)ccc3OC(F)F)n3nnnc3N2)cc1` (stereo not drawn), the figure is 1.73%; as for `CSCCC(C(=O)Nc1ccc(C(C)=O)cc1)N1C(=O)c2ccccc2C1=O` (stereo not drawn), -0.564%.
As to `Cc1cc(C)c(Cn2c(C)c(CNCc3ccccc3)c(C(=O)O)c2C)c(C)c1`, the “% Inhibition @ 10 uM” value is on record as -1.92%.
As for `Nc1nc(O)c(Br)c(Oc2ccc(F)cc2)n1`, the figure is -1.05%; as for `Cc1c2cnn(CC(=O)N3CCC(C(N)=O)CC3)c(=O)c2c(C)n1Cc1ccccc1F`, -0.447%; as for `CC(=O)c1c(O)cc(C)o/c1=N\c1ccc2c(c1)OCCO2`, 2.69%.
As for `CCOc1ccccc1N1C(=O)C2CC(C)=C(C)CC2C1=O` (stereo not drawn), the figure is -4.82%; as for `Cc1cc(NC(=O)c2cc(C)on2)n(-c2ccccc2)n1`, -3.77%; as for `O=C1c2ccccc2S(=O)(=O)N1CC(O)Cn1ccc2ccccc21` (stereo not drawn), -1.72%.
